The values that follow come from the BET-seq Pho4 binding data (Le et al. 2018).

The other results are listed elsewhere or left out. The energies were worked out here from pooled read counts, against the library average; single values are noisy.

The experiment has as its target T1, Pho4 (S. cerevisiae) (UniProt P07270).
T1 sequence: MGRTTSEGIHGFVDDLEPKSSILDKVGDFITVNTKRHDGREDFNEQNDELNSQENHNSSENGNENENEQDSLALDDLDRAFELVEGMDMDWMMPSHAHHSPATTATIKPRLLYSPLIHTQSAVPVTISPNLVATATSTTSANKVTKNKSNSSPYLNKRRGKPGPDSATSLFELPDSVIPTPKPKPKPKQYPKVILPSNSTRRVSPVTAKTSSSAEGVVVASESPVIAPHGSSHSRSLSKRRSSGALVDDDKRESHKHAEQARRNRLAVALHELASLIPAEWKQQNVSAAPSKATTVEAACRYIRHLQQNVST
In words: relative binding free energy (BET-seq); higher = weaker binding. The conditions noted are these: reference: library average.
Regarding GTATACACGTGGTAGT, the “relative binding free energy” value is -0.09 kcal/mol.

Regarding TGGGTCACGTGGAGAG, the “relative binding free energy” value was 0.23 kcal/mol.

In the case of AGGGTCACGTGACAGA, the “relative binding free energy” value was 0.2 kcal/mol.

For the sequence GGGTTCACGTGTCGGA, the “relative binding free energy” value was 0.2 kcal/mol.

With GTCTGCACGTGGGGGC, the “relative binding free energy” value is -0.09 kcal/mol.

As for GGATGCACGTGAAGGC, the “relative binding free energy” value came to 0.19 kcal/mol.

Consider ATGTCCACGTGTTATG, for which the “relative binding free energy” value is -0.04 kcal/mol.

Consider CTAAGCACGTGGTGGG, for which the “relative binding free energy” value is 0.05 kcal/mol.

As to GACGACACGTGGGCGG, the “relative binding free energy” value came out at 0.07 kcal/mol.

GTAGCCACGTGGTGTA: the “relative binding free energy” value was -0.14 kcal/mol.

In the case of TTGGTCACGTGTTAGC, the “relative binding free energy” value is 0.02 kcal/mol.

As to TGGGTCACGTGAGGTA, the “relative binding free energy” value came out at 0.28 kcal/mol.

Take GTTTCCACGTGGGTTA: the “relative binding free energy” value was -0.17 kcal/mol.

GGGAGCACGTGGTGAC: the “relative binding free energy” value is -0.15 kcal/mol.

For the sequence TCTTTCACGTGTGAGA, the “relative binding free energy” value worked out at 0.33 kcal/mol.

As for TGTGACACGTGCGGTT, the “relative binding free energy” value was -0.08 kcal/mol.

GGTATCACGTGGAAGT: the “relative binding free energy” value was 0.35 kcal/mol.

As for GTCTTCACGTGGGTAT, the “relative binding free energy” value worked out at 0.22 kcal/mol.

With AGTATCACGTGTTGCG, the “relative binding free energy” value worked out at 0.02 kcal/mol.

For the sequence AAGTGCACGTGTTCGG, the “relative binding free energy” value was determined as 0.06 kcal/mol.

Consider TTAATCACGTGAGAAT, for which the “relative binding free energy” value was found to be 0.35 kcal/mol.

Take TTTTGCACGTGATGTA: the “relative binding free energy” value was found to be 0.11 kcal/mol.

With TGAATCACGTGATGGG, the “relative binding free energy” value was 0.42 kcal/mol.

Regarding ATAAGCACGTGAGTGG, the “relative binding free energy” value stood at 0.21 kcal/mol.

Consider TAGGGCACGTGAGTAT, for which the “relative binding free energy” value was 0.21 kcal/mol.

For AAGCGCACGTGGGTGT, the “relative binding free energy” value is -0.29 kcal/mol.

As for TATGTCACGTGCAGGG, the “relative binding free energy” value stood at 0.11 kcal/mol.

Regarding CTATTCACGTGCGGGT, the “relative binding free energy” value worked out at 0.22 kcal/mol.

With GGAGTCACGTGTGGGT, the “relative binding free energy” value was determined as 0.32 kcal/mol.

Turning to AAGGCCACGTGTGGGG, the “relative binding free energy” value is -0.06 kcal/mol.

For the sequence GACGTCACGTGTTGGA, the “relative binding free energy” value was 0.28 kcal/mol.

On to GGTTTCACGTGATTCT, for which the “relative binding free energy” value came to 0.29 kcal/mol.

For the sequence GACGTCACGTGGAGGT, the “relative binding free energy” value amounted to 0.2 kcal/mol.

Consider GGTAGCACGTGGCGTT, for which the “relative binding free energy” value was -0.1 kcal/mol.

In the case of GTTAGCACGTGTATTC, the “relative binding free energy” value worked out at 0.07 kcal/mol.

Consider GGTAACACGTGGGGGT, for which the “relative binding free energy” value is -0.06 kcal/mol.

In the case of GTATTCACGTGGTCGA, the “relative binding free energy” value amounted to 0.28 kcal/mol.

Regarding TGGGTCACGTGCCAGT, the “relative binding free energy” value is -0.08 kcal/mol.

On to TAGTTCACGTGATATT, for which the “relative binding free energy” value turned out to be 0.38 kcal/mol.

As to TTTGACACGTGAATTA, the “relative binding free energy” value worked out at 0.24 kcal/mol.

As for GATTACACGTGATTTT, the “relative binding free energy” value came out at 0.23 kcal/mol.

Regarding TTGTTCACGTGGAATG, the “relative binding free energy” value stood at 0.22 kcal/mol.

On to TGCTTCACGTGATATT, for which the “relative binding free energy” value was 0.18 kcal/mol.

As for TATGACACGTGCGTGG, the “relative binding free energy” value is -0.02 kcal/mol.

As for CATGTCACGTGGTTAG, the “relative binding free energy” value was 0.03 kcal/mol.

For the sequence GACGACACGTGGGTTA, the “relative binding free energy” value worked out at 0.1 kcal/mol.

For ATGGGCACGTGGGTCT, the “relative binding free energy” value was -0.16 kcal/mol.

As for CTAGTCACGTGGTGGA, the “relative binding free energy” value is 0.05 kcal/mol.

CGCTACACGTGGGGTG: the “relative binding free energy” value is -0.12 kcal/mol.

As for GGTGTCACGTGGGGAT, the “relative binding free energy” value turned out to be 0.11 kcal/mol.

TTGTACACGTGATTCA: the “relative binding free energy” value stood at 0.11 kcal/mol.

For the sequence GTTTGCACGTGCTTGA, the “relative binding free energy” value is -0.13 kcal/mol.

GGTTACACGTGTGCTT: the “relative binding free energy” value is 0.14 kcal/mol.

Regarding AGGCACACGTGATAGT, the “relative binding free energy” value was found to be 0.14 kcal/mol.

With GTAATCACGTGATTGT, the “relative binding free energy” value came to 0.15 kcal/mol.

As to ACTTTCACGTGTGTGG, the “relative binding free energy” value came to 0.3 kcal/mol.

For the sequence GTGTTCACGTGTCGCT, the “relative binding free energy” value amounted to 0.28 kcal/mol.

On to AATATCACGTGGGTGG, for which the “relative binding free energy” value was -0.01 kcal/mol.

In the case of TGACGCACGTGGGCGT, the “relative binding free energy” value was -0.29 kcal/mol.

Take TTGGGCACGTGGAATT: the “relative binding free energy” value was -0.01 kcal/mol.

Consider GATCTCACGTGGGATT, for which the “relative binding free energy” value came to 0.27 kcal/mol.

With TTGAGCACGTGCGGTA, the “relative binding free energy” value was -0.15 kcal/mol.

As to TTTGTCACGTGGACAT, the “relative binding free energy” value came out at 0.03 kcal/mol.

For CTGGGCACGTGAAGAG, the “relative binding free energy” value amounted to 0.08 kcal/mol.

On to ATGTTCACGTGGGCAT, for which the “relative binding free energy” value was -0.04 kcal/mol.

TGGTACACGTGAGACG: the “relative binding free energy” value came out at 0.33 kcal/mol.

Regarding TAATCCACGTGAAGGG, the “relative binding free energy” value was found to be 0.43 kcal/mol.

Turning to TAGAACACGTGGTAAG, the “relative binding free energy” value was determined as 0.02 kcal/mol.

For the sequence GTGAACACGTGAGAGG, the “relative binding free energy” value is 0.25 kcal/mol.

Regarding TTACTCACGTGTTTAT, the “relative binding free energy” value is 0.25 kcal/mol.

Regarding AGGGACACGTGCTGGG, the “relative binding free energy” value was -0.12 kcal/mol.

With GAGGGCACGTGCTTGT, the “relative binding free energy” value was -0.02 kcal/mol.

Turning to GTCGTCACGTGTTTCT, the “relative binding free energy” value was 0.31 kcal/mol.

For the sequence TAATCCACGTGGGTAG, the “relative binding free energy” value was -0.08 kcal/mol.

Turning to GTTTGCACGTGAAAAG, the “relative binding free energy” value stood at 0.14 kcal/mol.

On to ATCGTCACGTGTAGTA, for which the “relative binding free energy” value turned out to be 0.06 kcal/mol.

Turning to ACGGGCACGTGAGGGA, the “relative binding free energy” value came to 0.04 kcal/mol.

With TGTTACACGTGGTGGT, the “relative binding free energy” value was found to be 0.02 kcal/mol.

As to AGAGGCACGTGGGGAC, the “relative binding free energy” value is -0.2 kcal/mol.

With TTAATCACGTGTTTAT, the “relative binding free energy” value came to 0.12 kcal/mol.

With GAATTCACGTGTTGGG, the “relative binding free energy” value is 0.35 kcal/mol.

In the case of GGTAACACGTGTACGT, the “relative binding free energy” value was -0.02 kcal/mol.

For GCGAGCACGTGAGGGG, the “relative binding free energy” value amounted to 0.18 kcal/mol.

As to GGAGGCACGTGGTTTC, the “relative binding free energy” value is -0.02 kcal/mol.

For GTATACACGTGTTAGT, the “relative binding free energy” value was 0.02 kcal/mol.

GGAGGCACGTGGAGAG: the “relative binding free energy” value stood at 0.08 kcal/mol.

For AACGGCACGTGGGTGT, the “relative binding free energy” value is -0.2 kcal/mol.

In the case of GAGGTCACGTGATAAG, the “relative binding free energy” value was 0.34 kcal/mol.

For the sequence TGGTGCACGTGACGAT, the “relative binding free energy” value was determined as 0.26 kcal/mol.

As to AGATCCACGTGGGCGT, the “relative binding free energy” value was 0.15 kcal/mol.

With TATAGCACGTGAGTGT, the “relative binding free energy” value was found to be 0.02 kcal/mol.

As for AGATTCACGTGTTTTG, the “relative binding free energy” value came out at 0.33 kcal/mol.

For the sequence GTACGCACGTGCGGTG, the “relative binding free energy” value is -0.04 kcal/mol.

With CAGTTCACGTGTGTAT, the “relative binding free energy” value was determined as 0.22 kcal/mol.

Regarding CGGGTCACGTGATCGT, the “relative binding free energy” value worked out at 0.22 kcal/mol.

For TACGTCACGTGTTGAT, the “relative binding free energy” value is 0.03 kcal/mol.

AGTTTCACGTGAACTT: the “relative binding free energy” value worked out at 0.32 kcal/mol.

Consider GGTGTCACGTGTATGG, for which the “relative binding free energy” value was 0.15 kcal/mol.

As to GGGGACACGTGAAGCT, the “relative binding free energy” value was determined as 0.35 kcal/mol.

For TTTGGCACGTGACAGT, the “relative binding free energy” value came to 0.01 kcal/mol.

TTAATCACGTGATGTA: the “relative binding free energy” value was 0.11 kcal/mol.

For CGAGTCACGTGTTAAT, the “relative binding free energy” value worked out at 0.23 kcal/mol.

Consider ATTCCCACGTGGGGTG, for which the “relative binding free energy” value is -0.18 kcal/mol.

As for ATGATCACGTGCGTTG, the “relative binding free energy” value turned out to be 0.03 kcal/mol.

Regarding AAGTTCACGTGCGAGT, the “relative binding free energy” value stood at 0.25 kcal/mol.

Turning to CTAATCACGTGGAGGG, the “relative binding free energy” value amounted to 0.23 kcal/mol.

Regarding AGTTTCACGTGGAGTC, the “relative binding free energy” value is 0.32 kcal/mol.

In the case of ATTTACACGTGGCGGT, the “relative binding free energy” value came out at 0.06 kcal/mol.

As for CTGGGCACGTGGAGGT, the “relative binding free energy” value is -0.07 kcal/mol.

On to TTGAGCACGTGGATTC, for which the “relative binding free energy” value amounted to 0 kcal/mol.

As for TAGGGCACGTGTTTCT, the “relative binding free energy” value was -0.05 kcal/mol.

Consider TATCACACGTGCGGGT, for which the “relative binding free energy” value was found to be 0.08 kcal/mol.

For the sequence TTTATCACGTGCGTGA, the “relative binding free energy” value is -0.02 kcal/mol.

For GGATGCACGTGGGATT, the “relative binding free energy” value was -0.05 kcal/mol.

AAGGTCACGTGTCTGA: the “relative binding free energy” value amounted to 0.08 kcal/mol.
